In PMC6919601, “Identification of Plasmodium dipeptidyl aminopeptidase allosteric inhibitors by high throughput screening” (PLoS ONE, 2019):
The whole screen tested about 110,000 compounds, of which about 230 (0.21%) showed an effect of 50% or more. This is one part of the list.

These compounds were tested against DPAP1 (Plasmodium falciparum, UniProt Q8IIJ9) (assay: primary screen, percent inhibition; read by cleavage of a fluorogenic dipeptide substrate; higher = more effect of the substance).
Chain of DPAP1 (Q8IIJ9 whole entry, looked up): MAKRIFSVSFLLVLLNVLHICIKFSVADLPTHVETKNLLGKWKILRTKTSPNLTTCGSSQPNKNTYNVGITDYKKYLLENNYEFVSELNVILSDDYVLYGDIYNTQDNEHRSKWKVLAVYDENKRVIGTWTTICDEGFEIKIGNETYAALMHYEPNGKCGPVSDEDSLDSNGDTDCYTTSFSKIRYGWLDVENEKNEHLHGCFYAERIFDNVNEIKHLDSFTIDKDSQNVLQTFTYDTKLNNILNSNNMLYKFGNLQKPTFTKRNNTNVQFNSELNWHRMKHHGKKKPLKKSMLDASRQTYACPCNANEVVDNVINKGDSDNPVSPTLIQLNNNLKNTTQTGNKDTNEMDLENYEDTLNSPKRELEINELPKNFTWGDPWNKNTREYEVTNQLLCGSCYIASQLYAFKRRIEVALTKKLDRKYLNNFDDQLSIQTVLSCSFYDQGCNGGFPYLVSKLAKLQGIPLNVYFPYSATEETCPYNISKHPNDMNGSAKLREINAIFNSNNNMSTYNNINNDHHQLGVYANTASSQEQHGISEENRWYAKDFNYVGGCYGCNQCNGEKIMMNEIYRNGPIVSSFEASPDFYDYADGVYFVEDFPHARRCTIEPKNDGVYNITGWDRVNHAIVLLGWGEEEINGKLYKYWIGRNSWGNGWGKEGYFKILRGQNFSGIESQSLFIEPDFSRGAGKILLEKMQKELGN
Set-up: species or system P. falciparum D10 trophozoite lysates; single well
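Further: 30 min substrate incubation versus DMSO and 10 µM JCP410 controls.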

Compared with Cc1ccc(S(=O)(=O)n2nc(C)cc2N)cc1, O=S(=O)(NCc1ccc2c(c1)OCO2)c1ccc(-n2cccn2)cc1 is lower in “% Inhibition @ 10 uM” value: -7.33% for the first, -9.58% for the second.

Going from Cc1cc(Cl)ccc1OCC(=O)NC1CCCCCC1 to Cc1cc(Cl)ccc1OCC(=O)Nc1ccccc1, the “% Inhibition @ 10 uM” value falls from 2.05% to 0.408%.

First: COc1cccc(C(=O)Cn2nnc3sc4c(c3c2=O)CCC(C)C4)c1 (stereo not drawn)
Second: CCOc1ccc(NC(=O)c2c(N)sc3c2CCC(C)C3)cc1 (stereo not drawn)
The “% Inhibition @ 10 uM” value of the first is lower: -2.71% for the first, 6.43% for the second.

First: COc1ccc(OC)c(C(=O)c2oc3ccccc3c2NC(=O)CN2CCCC2)c1
Second: COc1ccc2ccccc2c1CN1CCCN(C)CC1
The “% Inhibition @ 10 uM” value of the first is higher: 0.983% for the first, -3.57% for the second.

Going from O=C(O)c1ccc(CSc2nnc(-c3ccco3)n2-c2ccccc2)cc1 to O=C(NCCc1ccccc1)c1cccc2c1-c1ccccc1C2=O, the “% Inhibition @ 10 uM” value falls from 1.13% to -2.63%.

Going from NCC12CC3CC(C1)CC(CC(=O)O)(C3)C2 to COc1ccc(C(=N)NOC(=O)C23CC4CC(CC(C4)C2)C3)cc1OC, the “% Inhibition @ 10 uM” value rises from -4.35% to 1.75%.

Compared with COc1ccc(CN2COc3cc(C)c(Cl)c(C)c3C2)cc1, COc1cccc(C(=O)/N=c2\sc(C)c(-c3ccc(F)cc3)n2C)c1 is lower in “% Inhibition @ 10 uM” value: 2.24% for the first, 0.108% for the second.

Compared with CCCc1nnc(N2C(=O)c3oc4ccc(F)cc4c(=O)c3C2c2ccccc2F)s1 (stereo not drawn), Cc1nc2ccccc2c2c1C(=O)CC(c1ccc(F)cc1)=N2 is higher in “% Inhibition @ 10 uM” value: 1.74% for the first, 3.93% for the second.

Going from COc1ccc(CC(=O)Nc2sc3c(c2C#N)CCCC3)cc1OC to CC(C)(C)C1CCc2c(sc(NC(=O)c3cccs3)c2C(N)=O)C1 (stereo not drawn), the “% Inhibition @ 10 uM” value falls from -3.46% to -3.77%.

First: CCC(C)NC(=O)c1oc2ccc(S(=O)(=O)N3CCCC(C)C3)cc2c1C (stereo not drawn)
Second: Cc1csc(NC(=O)C2CCCN(S(=O)(=O)c3c[nH]cn3)C2)n1 (stereo not drawn)
The “% Inhibition @ 10 uM” value of the first is higher: 8.16% for the first, -5.58% for the second.

Going from CCCc1nc2c3ccccc3nc(S)n2n1 to Cc1nnc2c(NCCCO)nc3ccccc3n12, the “% Inhibition @ 10 uM” value falls from 6.07% to -2.88%.

First: Cc1noc2ncnc(N3CCCC(C(=O)NCCc4ccc(Cl)cc4)C3)c12 (stereo not drawn)
Second: O=C(Cn1ncc2c(=O)oc3ccccc3c21)NCCC1=CCCCC1
The “% Inhibition @ 10 uM” value of the first is higher: 13.8% for the first, -2.83% for the second.

Going from CCn1c(SCC(=O)Nc2ccc(Cl)cc2)nc2c1c(=O)n(C)c(=O)n2C to O=C(Nc1ccc(Cl)cc1)N1CCc2ccccc2C1, the “% Inhibition @ 10 uM” value rises from -0.99% to -0.641%.

First: O=C(O)C1Cc2c([nH]c3ccccc23)C(c2ccccc2[N+](=O)[O-])N1 (stereo not drawn)
Second: O=C(c1ccc([N+](=O)[O-])o1)N1CCN(Cc2ccccc2)CC1
The “% Inhibition @ 10 uM” value of the first is lower: -2.72% for the first, -2.42% for the second.

First: COc1ccc(S(=O)(=O)N2CCC(Cc3ccccc3)CC2)cc1
Second: O=C(CN(CCc1ccccc1)S(=O)(=O)c1ccc(Br)cc1)N1CCOCC1
The “% Inhibition @ 10 uM” value of the first is higher: 0.215% for the first, -5.13% for the second.

Compared with CC1=C(C(=O)N2CCN(Cc3ccccc3)CC2)C2(CCCCC2)OC1=O, CC(=O)N1CCN(C2CCc3ccccc3C2)CC1 (stereo not drawn) is lower in “% Inhibition @ 10 uM” value: 1.55% for the first, 0.217% for the second.

Compared with CCc1c(CN2CC(C)CC(C)C2)csc1C (stereo not drawn), CCO/C(O)=C1\C(C)=NC2=C(C(=O)CC(C)(C)C2)C1c1ccc(CC)s1 (stereo not drawn) is lower in “% Inhibition @ 10 uM” value: 4.14% for the first, 0.345% for the second.

Compared with O=C1C2C3CCC(O3)C2C(=O)N1c1cccc(O)c1 (stereo not drawn), COc1ccc(N2C(=O)CC(N3CCN(C(=O)c4ccco4)CC3)C2=O)cc1 (stereo not drawn) is lower in “% Inhibition @ 10 uM” value: 1.93% for the first, -1.98% for the second.

Compared with O=C(CCCC(=O)N1CCCc2ccccc21)N1CCCc2ccccc21, O=C(c1noc2c1COc1ccccc1-2)N1CCCN(Cc2ccccc2F)C1 is higher in “% Inhibition @ 10 uM” value: 2.67% for the first, 3.3% for the second.

Going from CC1CCN(C(=O)CN(C)S(=O)(=O)c2ccc3[nH]c(-c4ccccc4)nc3c2)CC1 to Cc1ccc(C(=O)N/C(=C/c2ccco2)C(=O)N2CCC(C)CC2)cc1, the “% Inhibition @ 10 uM” value rises from -8.49% to -2.78%.

Compared with Cc1ccccc1OCC(O)CN1CCN(CC(O)COc2ccccc2C)CC1 (stereo not drawn), CCOC(=O)N1CCN(CC(O)COc2c(C)cccc2C)CC1 (stereo not drawn) is lower in “% Inhibition @ 10 uM” value: -0.053% for the first, -5.35% for the second.

Going from CN(Cc1ccccc1)C(=O)CN(c1cccc(F)c1)S(C)(=O)=O to CCN(Cc1ccccc1)S(=O)(=O)c1c[nH]c(C(=O)OC)c1, the “% Inhibition @ 10 uM” value falls from -0.512% to -3.76%.

First: CC(C)Oc1ccc(C(=O)Nc2ccccc2Br)cc1
Second: COc1ccc(S(=O)(=O)N(CC(=O)Nc2ccccc2Br)c2ccccc2)cc1
The “% Inhibition @ 10 uM” value of the first is lower: -6.05% for the first, -1.66% for the second.

Going from COc1ccc(O)c(CN2CCC(N3CCCCC3)CC2)c1 to NC(CC(=O)OC1CCCCC1)C(=O)OC1CCCCC1 (stereo not drawn), the “% Inhibition @ 10 uM” value falls from 3.24% to -4.21%.

Going from Cc1nc(Oc2cccc3cccnc23)c2c3c(sc2n1)CCC3 to NC(=O)c1sc2nc(-c3ccccc3)ccc2c1N, the “% Inhibition @ 10 uM” value rises from 1.67% to 3.1%.

Compared with CC(C)N(Cc1ccccc1)C(=O)c1cc(-c2ccccc2)[nH]n1, O=C(CN1C(=O)c2ccccc2C1=O)NCCc1ccccc1 is higher in “% Inhibition @ 10 uM” value: -4.27% for the first, -1.29% for the second.

First: Cc1[nH]c2ccc(OC(F)(F)F)cc2c1CCN1C(=O)c2ccc(C(=O)O)cc2C1=O
Second: N#CCNC(=O)[C@H](CSCc1ccc(OC(F)(F)F)cc1)NC(=O)c1ccccc1
The “% Inhibition @ 10 uM” value of the first is higher: 0.9% for the first, -1.83% for the second.

Going from CCC(C)NC(=O)CN1C(=O)CSc2c1c(C)nn2-c1ccccc1 (stereo not drawn) to CCCCn1nc(NS(=O)(=O)c2ccccc2)c2cc3ccccc3nc21, the “% Inhibition @ 10 uM” value rises from -0.298% to 2.62%.

Going from COc1ccc(Cl)cc1C(=O)NC1CC(C)(C)NC(C)(C)C1 to COc1ccc(N(C(C)C(=O)Nc2ccc(Br)cc2)S(C)(=O)=O)cc1 (stereo not drawn), the “% Inhibition @ 10 uM” value rises from -11.5% to 2.08%.

Going from Cc1ccc(-c2[nH]c(-c3ccc(F)cc3)nc2SCC(=O)NCC2CCCO2)cc1 (stereo not drawn) to O=C1CC(c2cccc(Oc3ccccc3)c2)C2=C(CC(c3ccc(F)cc3)CC2=O)N1 (stereo not drawn), the “% Inhibition @ 10 uM” value falls from -1.58% to -2.24%.

Compared with CCC[C@H](NC(=O)[C@H](CS(=O)(=O)Cc1ccccc1)NC(=O)N1CCOCC1)C(=O)c1cccnn1, CC(C)C[C@H](NC(=O)N1CCN(c2ccc(O)cc2)CC1)C(=O)NCC#N is higher in “% Inhibition @ 10 uM” value: -8.36% for the first, -5.2% for the second.

With CC1CN(C(=O)c2cccc(S(=O)(=O)N3CC(C)OC(C)C3)c2)CC(C)O1 (stereo not drawn) the “% Inhibition @ 10 uM” value was 4.08%.
